Data published in patent publication US7812121B2 (priority 2006, dated 2010).

B1: SEQ ID NO: 77: GLP-2 mimetibody with A2G, N16G, L17Q analog (protein)
chain: HGDGSFSDEMNTILDGQAARDFINWLIQTKITDGSGGGSGTLVTVSS[in this place human IgG4 Fc with S228P F234A L235A (EU numbers)]
modifications: GLP-2 Mimetibody nucleic acid sequence with A2G, N16G, L17Q mutation
B2: SEQ ID NO: 75: GLP-2 mimetibody with A2G, L17Q analog (protein)
chain: HGDGSFSDEMNTILDNQAARDFINWLIQTKITDGSGGGSGTLVTVSS[in this place human IgG4 Fc with S228P F234A L235A (EU numbers)]
modifications: GLP-2 Mimetibody amino acid sequence with A2G, L17Q mutation

Assay: SEC-SLS solution molecular weight / self-association
Format: physicochemical
Conditions: purified mimetibody

| Molecule | SEC-SLS association state of mimetibodies |
| --- | --- |
| B1 | molecular weight consistent with monomer |
| B2 | monomer and dimer mixture |
